# Data taken from article PMC7819943, “Rice protein-binding microarrays: a tool to detect cis-acting elements near promoter regions in rice”.
# The list shows a part of the results.
# Molecular target: T1, OsWOX13 (Oryza sativa, UniProt Q5QMM3 1-267)
# T1 sequence: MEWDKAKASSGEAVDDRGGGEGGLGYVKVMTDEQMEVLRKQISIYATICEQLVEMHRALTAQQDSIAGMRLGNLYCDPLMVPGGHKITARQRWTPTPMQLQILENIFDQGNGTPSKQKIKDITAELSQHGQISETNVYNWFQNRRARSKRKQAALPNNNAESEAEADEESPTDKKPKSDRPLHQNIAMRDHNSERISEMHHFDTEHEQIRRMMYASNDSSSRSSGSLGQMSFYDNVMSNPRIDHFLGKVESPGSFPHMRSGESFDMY
# Assay: protein-binding microarray (RPBM); PBS, 2% BSA, 51.3 ng/ul salmon testes DNA, 50 uM zinc acetate, 200 nM TF, 25 C, 1 h; high values mean tight binding
# Conditions: protein: recombinant; tags: N-terminal polyhistidine and DsRed monomer fusion (pET32a); label: CyDye5-dUTP incorporated in the synthesized complementary strand; 3' TTTTT single-stranded linker to array surface; dsDNA, one strand shown
# Summary of the method: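 Binding signal is reported as fluorescence intensity per feature (arbitrary units) from an Axon 4000B scanner. Incubation used 200 nM of each Ni–NTA-purified, N-terminally polyhistidine- and DsRed-fused transcription factor from E. coli BL21-CodonPlus on a double-stranded custom Agilent array for 1 h at 25 °C, with 50 µM zinc acetate in the buffer, followed by washing.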
row,Sequence,binding signal
1,TGCGATTGATATGAAGAGAGAGCATATGTTGTCATTTGTTCGGAGTCACCTAGTGCAG,19900 fluorescence intensity (a.u.)
2,CTCTTAATTTTAGGAGGTGGCCGTATACACACCCTTGTTGCGGAGTCACCTAGTGCAG,11300 fluorescence intensity (a.u.)
3,TGATTAAATATAACTAAACTGTCAACGACATAATGCATTACGGAGTCACCTAGTGCAG,3470 fluorescence intensity (a.u.)
4,TTATATGATTATCCCACACTAATATGATGTATCTCTTAGTCGGAGTCACCTAGTGCAG,14900 fluorescence intensity (a.u.)
5,ATTTAAATTGAAAATTTAGCCCCGCAAACGACTCAATCTGCGGAGTCACCTAGTGCAG,36900 fluorescence intensity (a.u.)
6,TGATTTAATTAATTAATTAATGGCCTTGTTATTGGATGCTCGGAGTCACCTAGTGCAG,47100 fluorescence intensity (a.u.)
7,AATTAATTGTGTATTATAAGGTTTGGTCCCATTTTCTTTTCGGAGTCACCTAGTGCAG,26800 fluorescence intensity (a.u.)
8,GTGAAGACAGAAATGACAGCTAACTAGCCACGGCCAAGGCCGGAGTCACCTAGTGCAG,3460 fluorescence intensity (a.u.)
9,AATTAGATGATCATAATGGTTAGGCTTGCATCAGTGTGCTCGGAGTCACCTAGTGCAG,4260 fluorescence intensity (a.u.)
10,TACTTAATCATTACACGCTAATGGACCACTCTGTTATGTGCGGAGTCACCTAGTGCAG,16700 fluorescence intensity (a.u.)
11,ACTAATTTAGTCATAATTTTCTCACATCAGAGTATTGGACCGGAGTCACCTAGTGCAG,37500 fluorescence intensity (a.u.)
12,TAAATCAATCTAAAATTAGACGGGATGTTACCTCATACAACGGAGTCACCTAGTGCAG,25900 fluorescence intensity (a.u.)
13,ATACATAATTAGCGTGCGAATCTGAAAATATTCGCTCTAACGGAGTCACCTAGTGCAG,14800 fluorescence intensity (a.u.)
14,CCAAAATTTGCATAGACAGTCCTTCAATTCAGTGGAAAATCGGAGTCACCTAGTGCAG,10600 fluorescence intensity (a.u.)
15,ATTAATTTTGACGCTTCATCCCCTCTGTCCCCAGCACCAGCGGAGTCACCTAGTGCAG,16200 fluorescence intensity (a.u.)
16,AACTTTTGGATACATGATTGATAATTTCTTTTATAATTTACGGAGTCACCTAGTGCAG,9560 fluorescence intensity (a.u.)
17,AGCACATAATTGATATTCCAAGGGACAGTGGTCCATCTACCGGAGTCACCTAGTGCAG,30900 fluorescence intensity (a.u.)
18,CATAATTCATTGCCAATCCATTGCCACAAAATGAACATAGCGGAGTCACCTAGTGCAG,8610 fluorescence intensity (a.u.)
19,CTTTGATTTGATGCTTGTTTCGTGGCAGCTTACCACTGGACGGAGTCACCTAGTGCAG,40900 fluorescence intensity (a.u.)
20,AGATCCAATCATCATGGACGGTCATCCCAATTGAAGCAGACGGAGTCACCTAGTGCAG,6250 fluorescence intensity (a.u.)
21,AAGAAAATTGATAAAGAGAGAGGAGGAAGGGAGAGGAGGGCGGAGTCACCTAGTGCAG,12200 fluorescence intensity (a.u.)

row,Sequence,binding signal
1,TACCACACTTGCACTGATTAGTATTATCGGGTTTAACATACGGAGTCACCTAGTGCAG,6410 fluorescence intensity (a.u.)
2,ATTAAAATTCACTTAATATCAATCATATGTAAGATTAATTCGGAGTCACCTAGTGCAG,19600 fluorescence intensity (a.u.)
3,AAATAAATTTCATTTGGCAGCATACATTTCAATTTTCGTTCGGAGTCACCTAGTGCAG,6300 fluorescence intensity (a.u.)
4,ACTATAATTAAGTATGTGCAGCTGAAACTGTTAGGAGTTTCGGAGTCACCTAGTGCAG,9250 fluorescence intensity (a.u.)
5,TCTTAATTACACCACTGGTGTGAGAGAAATTAATTTGCTTCGGAGTCACCTAGTGCAG,16200 fluorescence intensity (a.u.)
6,GATAATTACTCTTACGTCCCTCACCCTATGTTCCTGTGTTCGGAGTCACCTAGTGCAG,27100 fluorescence intensity (a.u.)
7,CGCCGCCTCAAACTTTGATTGGAAATCGAAACGGGAAGAACGGAGTCACCTAGTGCAG,11000 fluorescence intensity (a.u.)
8,TCCTAATTTTGTAAACTTGTAGGGACTAAAATAAATTAAGCGGAGTCACCTAGTGCAG,5570 fluorescence intensity (a.u.)
9,TAATATAATTGTTGACTAGAAATAGTCATATGGCATATTACGGAGTCACCTAGTGCAG,8940 fluorescence intensity (a.u.)
10,AGGTGGATTATGGAGTGATGAGTGCGGCATTGAGGGGATTCGGAGTCACCTAGTGCAG,4040 fluorescence intensity (a.u.)
11,AAGCCTCCTGATTAGTCCAATAGATGCCTTATATATGATCCGGAGTCACCTAGTGCAG,4940 fluorescence intensity (a.u.)
12,AAAACAAAGATATAATTAACATGTTTCAAATTTGCACAGACGGAGTCACCTAGTGCAG,8980 fluorescence intensity (a.u.)
13,TAATAAATTTGACTACGAATAGAACGTGTAATTCACAGTCCGGAGTCACCTAGTGCAG,4730 fluorescence intensity (a.u.)
14,TAAGATTATGATTGGAAATATCACACGATGCTATGATAAGCGGAGTCACCTAGTGCAG,33800 fluorescence intensity (a.u.)
15,CGTCAGATTGGGGAAGCGGGAAAGGGGAAACGATGATCCGCGGAGTCACCTAGTGCAG,6190 fluorescence intensity (a.u.)
16,CAAGACCTAAATGACCGTGATAGGATCCGGAAATTTAACGCGGAGTCACCTAGTGCAG,5620 fluorescence intensity (a.u.)
17,ATTTTGCATAGATTTAGATTGACTTGCAAACTCTAGTAAGCGGAGTCACCTAGTGCAG,21400 fluorescence intensity (a.u.)
18,ACTATTAAACTTTAACTTTAATTATGTTTGATCAAGTTTACGGAGTCACCTAGTGCAG,9030 fluorescence intensity (a.u.)
19,CGACGGCTGCTAATCAACTCTTGAATTCACATCCAACGGACGGAGTCACCTAGTGCAG,3140 fluorescence intensity (a.u.)
20,GGAAAAGATTGAATCACTCTTGTTATATCGCTTGATTTACCGGAGTCACCTAGTGCAG,22700 fluorescence intensity (a.u.)
21,ACTTATATGTAATTACATTGTAACTTGCATGTAACTACAGCGGAGTCACCTAGTGCAG,12200 fluorescence intensity (a.u.)

row,Sequence,binding signal
1,ACCGATAATTTCTATAGGATAATTCGTTCTTGTAGTCTATCGGAGTCACCTAGTGCAG,12400 fluorescence intensity (a.u.)
2,GTGTGTTTATATTGATTATTTTACTTTATATAGTGTTAGGCGGAGTCACCTAGTGCAG,12900 fluorescence intensity (a.u.)
3,TTCATAGATGAAGGTAATTGATTGATACGGGCTAATATCACGGAGTCACCTAGTGCAG,44900 fluorescence intensity (a.u.)
4,GCTTTTACTTAAACTGATTGGTGCTGATGGGTATGTTTGTCGGAGTCACCTAGTGCAG,24900 fluorescence intensity (a.u.)
5,TTTATGTATCCATCTTTATGCCCTTCTCAAATCTCCCAATCGGAGTCACCTAGTGCAG,6310 fluorescence intensity (a.u.)
6,AACCATTAATTTGATATCTATATCATATCATATTCATATTCGGAGTCACCTAGTGCAG,10600 fluorescence intensity (a.u.)
7,TCAATCAATTAATTAATTAATCGAATTGTGTTATATCTCTCGGAGTCACCTAGTGCAG,51000 fluorescence intensity (a.u.)
8,AGTTTGATTTTAAGCTTGTTCAAAACCTTGTCCAAAACGTCGGAGTCACCTAGTGCAG,4340 fluorescence intensity (a.u.)
9,ACGATATATTTTACTAATTAAAATGTACCGTGACTAAGCACGGAGTCACCTAGTGCAG,4750 fluorescence intensity (a.u.)
10,AAGCTGTAAGTAAATTGCTTGTAATTGCCATTGCAACATCCGGAGTCACCTAGTGCAG,6110 fluorescence intensity (a.u.)
11,TAGATTGATAGGTGGAAAGATTCAATTAAATCAAATTCAACGGAGTCACCTAGTGCAG,29300 fluorescence intensity (a.u.)
12,CAACTTTAATTACAAGAAAATAGTAAAACATCACATGACACGGAGTCACCTAGTGCAG,5640 fluorescence intensity (a.u.)
13,TAAGATAAATGATTAAATGTTATGTGAAAGTCAATGACGTCGGAGTCACCTAGTGCAG,18200 fluorescence intensity (a.u.)
14,ATTCAAAATTTAAATTGTTCAAATTAACTTACTTGGATAACGGAGTCACCTAGTGCAG,15500 fluorescence intensity (a.u.)
15,TAGTCTATGTATTTGGCTGATTGCCGGCGCTTTGATTAGCCGGAGTCACCTAGTGCAG,6060 fluorescence intensity (a.u.)
16,TCAGTCGGCAATTGATTAAGCAGCTAGCTCAAGCTGGTAACGGAGTCACCTAGTGCAG,4300 fluorescence intensity (a.u.)
17,TACATGATACTATATCAATTATCAAATCGAACTTGTCAATCGGAGTCACCTAGTGCAG,3600 fluorescence intensity (a.u.)
18,CTCTAATTTCAGTTGCCTGATTTATATTCATGATTAACAACGGAGTCACCTAGTGCAG,18200 fluorescence intensity (a.u.)
19,TCCTAATTAATGTTAGAAATTTTCCTAATTAATGCTAGAACGGAGTCACCTAGTGCAG,28600 fluorescence intensity (a.u.)
20,GCCACTAATTTATTCTTTAAAATGGTTTGGATCTTTAAATCGGAGTCACCTAGTGCAG,23000 fluorescence intensity (a.u.)
21,TCTATAATTTATTTTATTATTAGTTTACGTTTAATATTTCCGGAGTCACCTAGTGCAG,8300 fluorescence intensity (a.u.)

row,Sequence,binding signal
1,TATAGTAATTAAAACTCAATTAATCATATGTTAATACCACCGGAGTCACCTAGTGCAG,22800 fluorescence intensity (a.u.)
2,CCACCAATCAGGGCGCACGTCCCCTCCTCTACAAAACCATCGGAGTCACCTAGTGCAG,13500 fluorescence intensity (a.u.)
3,GAGCCCTGATTGGTTATCTGGCTTGAATTCCAAGTAGGTTCGGAGTCACCTAGTGCAG,39300 fluorescence intensity (a.u.)
4,GGGTAATTGGGTCCGGCCCATTATCATGCCTCGTGGTCTCCGGAGTCACCTAGTGCAG,26300 fluorescence intensity (a.u.)
5,TGTATAGACTGACGATGGTGACGATGCGCTTGGAGGCGGCCGGAGTCACCTAGTGCAG,3780 fluorescence intensity (a.u.)
6,CTCTAGATTATCTGTGAGAGCGCTCTAACCAGTTTCACTCCGGAGTCACCTAGTGCAG,4240 fluorescence intensity (a.u.)
7,AACGTCCGATTTAACATTAAATTAAGGCCATGATATTACTCGGAGTCACCTAGTGCAG,3620 fluorescence intensity (a.u.)
8,TGATCTAATCAATGACAGCGACTTGGTTCCATGTTCTTCCCGGAGTCACCTAGTGCAG,12300 fluorescence intensity (a.u.)
9,GCTATAAATTTGTAGCCCGTTTTCCTTCTCTCTTCTTCTTCGGAGTCACCTAGTGCAG,6210 fluorescence intensity (a.u.)
10,GAAAATGCAATTACATGGAAAATTTATATATGGATTGCAGCGGAGTCACCTAGTGCAG,10100 fluorescence intensity (a.u.)
11,TAGATTCAATCAGAAATAAAGTCTATATGAACAGAGGGTACGGAGTCACCTAGTGCAG,3930 fluorescence intensity (a.u.)
12,CCGTGGTTAACTACTTGATGGGTTCTCTCAAGTGTTAATGCGGAGTCACCTAGTGCAG,3390 fluorescence intensity (a.u.)
13,GCTAATGAGTCAATTTCCATTGAAAGATTATTTCACCTTGCGGAGTCACCTAGTGCAG,15600 fluorescence intensity (a.u.)
14,GACTGTTAAATTAACTATAGATGATTTGAATCTAGTACTACGGAGTCACCTAGTGCAG,26500 fluorescence intensity (a.u.)
15,CGGTTTGATTAATATTCCTTGCTCCAGTCCAAAGAGAACGCGGAGTCACCTAGTGCAG,25300 fluorescence intensity (a.u.)
16,GCTTGATTGCCACACAAATTTTGACAATACGACCCTTTACCGGAGTCACCTAGTGCAG,42900 fluorescence intensity (a.u.)
17,AGTTATTATTTTATCTTTAATAGATTGATAAAAGGTGATACGGAGTCACCTAGTGCAG,13000 fluorescence intensity (a.u.)
18,TTGATTTATTTATTTTATAATAAATAAAACAATAGCCATGCGGAGTCACCTAGTGCAG,32900 fluorescence intensity (a.u.)
19,GATAATTTGTCAAAGTTGTTCCCCAATGCACACCTGACCACGGAGTCACCTAGTGCAG,18900 fluorescence intensity (a.u.)
20,TTCCCATCAATCCGTCCACAATCAAACCACTTCCATCTCTCGGAGTCACCTAGTGCAG,6760 fluorescence intensity (a.u.)
21,CCTTTTGTGACTTTTGTCCATCAATCATACAGTCACGCTCCGGAGTCACCTAGTGCAG,6920 fluorescence intensity (a.u.)
